# Measured values from the supplement of paper PMC12230231.
# Tested on: SIVsab (simian immunodeficiency virus of sabaeus monkeys), single-cycle GFP reporter, in CRFK cells
# Test: enrichment among infected cells over input (fold); higher = weaker restriction
# Conditions: library: human / rhesus combinations
# Method: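 Pools of CRFK cells expressing variants of the TRIM5α v1 loop were challenged with the single-cycle reporter, sorted by GFP and sequenced; mean of two replicates.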
row,Sequence,enrichment
1,"MASGILLNVKEEVTCPICLELLTEPLSLHCGHSFCQACITANHKKSMLYKEGERSCPVCRISYQPENIQPNRHVANIVEKLREVKLSPEEGQKVDHCARHGEKLLLFCQEDSKVICWLCERSQEHRGHHTFLMEEVAQEYHVKLQTALEMLRQKQQEAEKLEADIREEKASWKIQIDYDKTNVSADFEQLREILDWEESNELQNLEKEEEDILKSLTKSETEMVQQTQYMRELISELEHRLQGSMMDLLQGVDGIIKRIENMTLKKPKTFHKNQRRVFRAPDLKGMLDMFRELTDARRYWVDVTLAPNNISHAVIAEDKRQVSSRNPQIMYGARGTRFTFQTLTNFNYCTGVLGSQSITSGKHYWEVDVSKKSAWILGVCAGFQSDAMYNIEQNENYQPKYGYWVIGLQEGVKYSVFQDGSSHTPFAPFIVPLSVIICPDRVGVFVDYEACTVSFFNITNHGFLIYKFSQCSFSKPVFPYLNPRKCTVPMTLCSPSS [rhesus TRIM5α, 332-344 = GARGTRFTFQTLT]",1.76 ± 0.12
2,"MASGILLNVKEEVTCPICLELLTEPLSLHCGHSFCQACITANHKKSMLYKEGERSCPVCRISYQPENIQPNRHVANIVEKLREVKLSPEEGQKVDHCARHGEKLLLFCQEDSKVICWLCERSQEHRGHHTFLMEEVAQEYHVKLQTALEMLRQKQQEAEKLEADIREEKASWKIQIDYDKTNVSADFEQLREILDWEESNELQNLEKEEEDILKSLTKSETEMVQQTQYMRELISELEHRLQGSMMDLLQGVDGIIKRIENMTLKKPKTFHKNQRRVFRAPDLKGMLDMFRELTDARRYWVDVTLAPNNISHAVIAEDKRQVSSRNPQIMYGARGTRYTFQSLVNFNYCTGVLGSQSITSGKHYWEVDVSKKSAWILGVCAGFQSDAMYNIEQNENYQPKYGYWVIGLQEGVKYSVFQDGSSHTPFAPFIVPLSVIICPDRVGVFVDYEACTVSFFNITNHGFLIYKFSQCSFSKPVFPYLNPRKCTVPMTLCSPSS [rhesus TRIM5α, 332-344 = GARGTRYTFQSLV]",0.817 ± 0.28
3,"MASGILLNVKEEVTCPICLELLTEPLSLHCGHSFCQACITANHKKSMLYKEGERSCPVCRISYQPENIQPNRHVANIVEKLREVKLSPEEGQKVDHCARHGEKLLLFCQEDSKVICWLCERSQEHRGHHTFLMEEVAQEYHVKLQTALEMLRQKQQEAEKLEADIREEKASWKIQIDYDKTNVSADFEQLREILDWEESNELQNLEKEEEDILKSLTKSETEMVQQTQYMRELISELEHRLQGSMMDLLQGVDGIIKRIENMTLKKPKTFHKNQRRVFRAPDLKGMLDMFRELTDARRYWVDVTLAPNNISHAVIAEDKRQVSSRNPQIMYGAPGTRFTFQSFVNFNYCTGVLGSQSITSGKHYWEVDVSKKSAWILGVCAGFQSDAMYNIEQNENYQPKYGYWVIGLQEGVKYSVFQDGSSHTPFAPFIVPLSVIICPDRVGVFVDYEACTVSFFNITNHGFLIYKFSQCSFSKPVFPYLNPRKCTVPMTLCSPSS [rhesus TRIM5α, 332-344 = GAPGTRFTFQSFV]",0.833 ± 0.14
4,"MASGILLNVKEEVTCPICLELLTEPLSLHCGHSFCQACITANHKKSMLYKEGERSCPVCRISYQPENIQPNRHVANIVEKLREVKLSPEEGQKVDHCARHGEKLLLFCQEDSKVICWLCERSQEHRGHHTFLMEEVAQEYHVKLQTALEMLRQKQQEAEKLEADIREEKASWKIQIDYDKTNVSADFEQLREILDWEESNELQNLEKEEEDILKSLTKSETEMVQQTQYMRELISELEHRLQGSMMDLLQGVDGIIKRIENMTLKKPKTFHKNQRRVFRAPDLKGMLDMFRELTDARRYWVDVTLAPNNISHAVIAEDKRQVSSRNPQIMYGAPGTLYTFQTLVNFNYCTGVLGSQSITSGKHYWEVDVSKKSAWILGVCAGFQSDAMYNIEQNENYQPKYGYWVIGLQEGVKYSVFQDGSSHTPFAPFIVPLSVIICPDRVGVFVDYEACTVSFFNITNHGFLIYKFSQCSFSKPVFPYLNPRKCTVPMTLCSPSS [rhesus TRIM5α, 332-344 = GAPGTLYTFQTLV]",1.14 ± 0.02
5,"MASGILLNVKEEVTCPICLELLTEPLSLHCGHSFCQACITANHKKSMLYKEGERSCPVCRISYQPENIQPNRHVANIVEKLREVKLSPEEGQKVDHCARHGEKLLLFCQEDSKVICWLCERSQEHRGHHTFLMEEVAQEYHVKLQTALEMLRQKQQEAEKLEADIREEKASWKIQIDYDKTNVSADFEQLREILDWEESNELQNLEKEEEDILKSLTKSETEMVQQTQYMRELISELEHRLQGSMMDLLQGVDGIIKRIENMTLKKPKTFHKNQRRVFRAPDLKGMLDMFRELTDARRYWVDVTLAPNNISHAVIAEDKRQVSSRNPQIMYGAPGTLYTFPSFVNFNYCTGVLGSQSITSGKHYWEVDVSKKSAWILGVCAGFQSDAMYNIEQNENYQPKYGYWVIGLQEGVKYSVFQDGSSHTPFAPFIVPLSVIICPDRVGVFVDYEACTVSFFNITNHGFLIYKFSQCSFSKPVFPYLNPRKCTVPMTLCSPSS [rhesus TRIM5α, 332-344 = GAPGTLYTFPSFV]",1.2 ± 1.1
6,"MASGILLNVKEEVTCPICLELLTEPLSLHCGHSFCQACITANHKKSMLYKEGERSCPVCRISYQPENIQPNRHVANIVEKLREVKLSPEEGQKVDHCARHGEKLLLFCQEDSKVICWLCERSQEHRGHHTFLMEEVAQEYHVKLQTALEMLRQKQQEAEKLEADIREEKASWKIQIDYDKTNVSADFEQLREILDWEESNELQNLEKEEEDILKSLTKSETEMVQQTQYMRELISELEHRLQGSMMDLLQGVDGIIKRIENMTLKKPKTFHKNQRRVFRAPDLKGMLDMFRELTDARRYWVDVTLAPNNISHAVIAEDKRQVSSRNPQIMYGARGTRYTFQTFTNFNYCTGVLGSQSITSGKHYWEVDVSKKSAWILGVCAGFQSDAMYNIEQNENYQPKYGYWVIGLQEGVKYSVFQDGSSHTPFAPFIVPLSVIICPDRVGVFVDYEACTVSFFNITNHGFLIYKFSQCSFSKPVFPYLNPRKCTVPMTLCSPSS [rhesus TRIM5α, 332-344 = GARGTRYTFQTFT]",1.09 ± 0.32
7,"MASGILLNVKEEVTCPICLELLTEPLSLHCGHSFCQACITANHKKSMLYKEGERSCPVCRISYQPENIQPNRHVANIVEKLREVKLSPEEGQKVDHCARHGEKLLLFCQEDSKVICWLCERSQEHRGHHTFLMEEVAQEYHVKLQTALEMLRQKQQEAEKLEADIREEKASWKIQIDYDKTNVSADFEQLREILDWEESNELQNLEKEEEDILKSLTKSETEMVQQTQYMRELISELEHRLQGSMMDLLQGVDGIIKRIENMTLKKPKTFHKNQRRVFRAPDLKGMLDMFRELTDARRYWVDVTLAPNNISHAVIAEDKRQVSSRNPQIMYQARGTRFTFQTFVNFNYCTGVLGSQSITSGKHYWEVDVSKKSAWILGVCAGFQSDAMYNIEQNENYQPKYGYWVIGLQEGVKYSVFQDGSSHTPFAPFIVPLSVIICPDRVGVFVDYEACTVSFFNITNHGFLIYKFSQCSFSKPVFPYLNPRKCTVPMTLCSPSS [rhesus TRIM5α, 332-344 = QARGTRFTFQTFV]",1.39 ± 1.3
8,"MASGILLNVKEEVTCPICLELLTEPLSLHCGHSFCQACITANHKKSMLYKEGERSCPVCRISYQPENIQPNRHVANIVEKLREVKLSPEEGQKVDHCARHGEKLLLFCQEDSKVICWLCERSQEHRGHHTFLMEEVAQEYHVKLQTALEMLRQKQQEAEKLEADIREEKASWKIQIDYDKTNVSADFEQLREILDWEESNELQNLEKEEEDILKSLTKSETEMVQQTQYMRELISELEHRLQGSMMDLLQGVDGIIKRIENMTLKKPKTFHKNQRRVFRAPDLKGMLDMFRELTDARRYWVDVTLAPNNISHAVIAEDKRQVSSRNPQIMYQARGTLFPTFTNFNYCTGVLGSQSITSGKHYWEVDVSKKSAWILGVCAGFQSDAMYNIEQNENYQPKYGYWVIGLQEGVKYSVFQDGSSHTPFAPFIVPLSVIICPDRVGVFVDYEACTVSFFNITNHGFLIYKFSQCSFSKPVFPYLNPRKCTVPMTLCSPSS [rhesus TRIM5α, 332-344 = QARGTLFPTFT]",0.0904 ± 0.074

# ± gives the standard deviation of the averaged measurements. Restriction of a single-cycle SIVsab GFP reporter by TRIM5α v1-loop variants in CRFK cells. Human variants: read share among cells still uninfected after two challenges over input, higher = gained restriction. Rhesus variants: share among infected cells over input, higher = lost restriction. Reporter dose not given per row. No active / inactive call per row; the paper calls a change when both replicates lie above its controls (mean + 2 SD of stop or wild-type variants, or the top frameshift score). Residues outside the varied loop are taken from Swiss-Prot. The paper reads the human single-substitution scores as noise; they and the rhesus combinations repeat poorly (rank correlation 0.3 to 0.4), indel scores repeat only for the top variants, rhesus substitutions well (0.9).
